Data published in PubChem BioAssay AID1963576 (National Center for Advancing Translational Sciences (NCATS), 2024).
Out of some 46,000 compounds screened, about 60 (0.1%) were called active. Inconclusive results (about 3%) are left out. The call rests on the fitted dose curve; in most records, active means well fitted inhibition curve with a large enough effect; inconclusive means small, poorly fitted or top-dose-only effect; inactive means no such curve, though single readings can be large or run the other way. This is one part of the list.

Experiment: Primary qHTS assay for Inhibitors of ovarian cancer metastasis using an organotypic tumor microenvironment (TME) model. Further: nearly all actives have a fitted effect of over 65% in size.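 On activity change, negative = inhibition: plate controls were DMSO wells for no effect and tomatine positive control wells for full effect.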
Conditions: SKOV3ip1-GFP adhesion/invasion on 3D omental model, fluorescence; series mostly up to 45.8 µM; activity change, negative = inhibition: at the top concentration
In short: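 Adhesion/invasion was scored as fixed GFP-labeled SKOV3ip1 cell counts (488/509 nm), normalized to DMSO and tomatine controls. Cancer cells in serum-free medium, with four compound doses (0.36-46 umol/L), sat 2 hr at RT then 16 hr at 37 C on a 48 hr fibroblast/mesothelial/ECM culture.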

SMILES | activity change, negative = inhibition | outcome
CCOc1ccc(CCNC(=O)c2cnc3c(-c4ccc(F)cc4)c(C)nn3c2C)cc1OCC | inactive: 11.5% | –
O=C(CCCN1CCN(c2ccc(F)cc2)CC1)NC1c2ccccc2CSc2ccccc21 (configuration not stated) | inactive: 6.25% | –
Oc1c(C(c2ccc(Cl)cc2)N2CCC3(CC2)OCCO3)sc2nc(-c3ccco3)nn12 (configuration not stated) | – | inactive
CCOc1ccccc1NC(=O)CSc1nc2cc(OC)c(OC)cc2c2nc(-c3ccccc3)nn12 | – | inactive
O=C(Cn1c(=O)oc2ccccc21)Nc1ccc(C(=O)O)cc1 | – | inactive
CCn1c(=O)c(C(=O)Nc2ccc(C(C)=O)cc2)nc2ccccc21 | – | inactive
COc1ccc(NC(=O)c2sc3nc(-c4ccc(OC)cc4)cc(C(F)(F)F)c3c2N)cc1 | inactive: 9.53% | –
COc1ccccc1OCCSc1nc2ccccc2n1CC(=O)N1CCOCC1 | inactive: -6.8% | –
C#CCSc1nc2sc3c(c2c(=O)n1Cc1ccccc1)CCCC3 | inactive: -4.11% | –
Cc1ccc(C)c(CN2C(=O)c3ccccc3S(=O)(=O)c3ccc(C(=O)N4CCN(c5ccccc5)CC4)cc32)c1 | inactive: 13.1% | –
Cc1ccccc1Nc1c(-c2ccco2)nc2c(C)cccn12 | inactive: -14.5% | –
Cc1ccc(NC(=O)CCS(=O)(=O)c2cccc3nonc23)cc1Cl | inactive: -10.6% | –
CC1CCCCN1S(=O)(=O)c1ccc(C(=O)Nc2sc3c(c2C(N)=O)CC(C)(C)NC3(C)C)cc1 (configuration not stated) | inactive: 0.597% | –
COc1ccc(CCNC(=O)c2c(O)nc3c(C)cccn3c2=O)cc1 | inactive: 0.634% | –
COc1ccc(C(=O)N2c3ccccc3C(C)(c3ccc(Cl)cc3)CC2(C)C)cc1 (configuration not stated) | inactive: -0.439% | –
Cc1ccc(-c2onc(C)c2C)cc1S(=O)(=O)N1c2ccccc2CC1C (configuration not stated) | inactive: -12.1% | –
CCc1cncnc1N1CCN(Cc2nc3ccc(C(F)(F)F)cc3[nH]2)CC1 | inactive: -13.5% | –
CCOCCCNC(=O)c1[nH]c2cc(C)ccc2c1Sc1ccc(Cl)cc1 | inactive: 10.1% | –
CCOC(=O)c1ccc(-n2c(C)nc3c(cnn3-c3ccc(Cl)cc3)c2=O)cc1 | inactive: -14.8% | –
O=S1(=O)c2ccccc2N(Cc2cccc(C(F)(F)F)c2)c2ccccc21 | inactive: -22.7% | –
CCCCN(CCCC)CCNC(=O)Cn1nc(CC)n2c(cc3sc(C)cc32)c1=O | inactive: -1.07% | –
Cc1cccc(NC(=O)Cn2c(=O)n(CCCS(=O)(=O)C3CCCCC3)c(=O)c3ccccc32)c1 | inactive: -9.23% | –
COc1cc(OC)c(N(C)C(=O)CCNC(=O)Cn2cnc3ccccc3c2=O)cc1Cl | inactive: -6.89% | –
CN(C)CCNC(=O)Cn1c(=O)c2cccn2c2ccc(F)cc21 | inactive: -26.6% | –

SMILES | activity change, negative = inhibition | outcome
COc1cccc(-c2nc(SCC(=O)Nc3ccc4c(c3)OCCO4)c(-c3ccccc3)[nH]2)c1 | inactive: -16.9% | –
O=C(NCCn1cc(SCc2ccc(Cl)cc2)c2ccccc21)c1cccs1 | – | inactive
CCOCCc1nn2c(=O)cc(COC(=O)c3ccccc3NC(=O)C3CCCCC3)nc2s1 | inactive: 12.7% | –
COc1ccc(Cc2ccc(NC(N)=O)cc2)cc1-c1cccc(Cl)c1 | inactive: 2.88% | –
COc1ccc(-c2oc3ncn4nc(COc5ccc(C)cc5)nc4c3c2-c2ccc(OC)cc2)cc1 | inactive: -9.71% | –
COc1ccc(CNC(=O)c2ccc(NC(=O)N3CCSc4ncccc43)cc2)cc1OC | – | inactive
COc1ccc(OC)c(-c2noc(N3CCN(c4ccc(C(C)=O)cc4)CC3)n2)c1 | inactive: 6.36% | –
CCOC(=O)c1c(NC(=O)CCCOc2ccc(Cl)cc2)sc2c1CCC2 | inactive: 2.51% | –
CCOC(=O)Cn1c(=O)oc2cc(S(=O)(=O)N3CCN(c4ccccc4OC)CC3)ccc21 | inactive: -8.27% | –
COc1cccc(CN(C(=O)c2ccc(C(C)(C)C)cc2)C2CCS(=O)(=O)C2)c1 (configuration not stated) | inactive: 1.11% | –
COc1cccc2c1Oc1nc(-c3ccccc3)nc(SCC(=O)Nc3ccccc3)c1C2 | inactive: 14.8% | –
COCCCNC(=O)c1ccc(Cn2c(=O)c3ccccc3n(Cc3ccccc3C)c2=O)cc1 | inactive: -24% | –
CCOc1ccc(-c2nnc(SCC(=O)Nc3cc(F)ccc3F)o2)cc1 | inactive: -22.5% | –
Cc1ccccc1NC(=O)c1c(C)oc2ccc(O)c(CN3CCC(C)CC3)c12 | inactive: -1.88% | –
CCCOc1ccc(C(=O)Nc2ccc3nn(-c4ccc(OC)c(Cl)c4)nc3c2)cc1 | inactive: 1.91% | –
COc1ccc(N(CC(=O)NCCc2ccccc2)S(=O)(=O)c2ccc(OC)c(OC)c2)cc1 | inactive: -19.6% | –
Nc1nonc1-c1nc2ccccc2n1Cc1c(Cl)cccc1Cl | inactive: 5.96% | –
COc1ccc(CCNC(=O)c2ccc3nc(Cc4ccccc4)oc3c2)cc1OC | inactive: -0.207% | –
O=C(C1CCCN(S(=O)(=O)c2cccc3nonc23)C1)N1CCN(c2ccccc2Cl)CC1 (configuration not stated) | – | inactive
COc1ccc(NC(=O)c2cnn(-c3ccc(F)cc3F)c2C2CCN(C(=O)OC(C)(C)C)CC2)cc1Cl | inactive: 2.16% | –
CC1=C(c2ccc(C)cc2)S(=O)(=O)N(Cc2ccc(C(=O)Nc3ccccc3C)cc2)C1=O | inactive: -3.98% | –
CCN1C(=O)C2(c3ccccc31)c1c(oc3ccc(C)cc3c1=O)C(=O)N2CCCOC(C)C (configuration not stated) | – | inactive
Cc1cc2ccccc2n1CCNC(=O)c1ccc(F)cc1 | inactive: 21.6% | –
